Sequences with one replicate were seen in a single cluster, so their values are uncertain.
The sequences below were run on ATP (assay: switch fluorescence ratio, 500 uM ATP over buffer (Cy3 cluster intensity, sum of 5 cycles each) (fold (ratio)); higher = stronger signal-on switching upon ATP binding; sequences stand for … in TCGTCGGCAGCGTCAGATGTGTATAAGAGACAGTTTTTTTTTTTTTTTTTTTTTTTTT…TC). Conditions: aptamer strand: ATP DNA aptamer (quencher-CACCTGGGGGAGTATTGCGGAGGAAGG + anchor), 100 nM annealed; ATP concentration: 500 uM; one replicate.
Summary of the method: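 After annealing to 100 nM quencher-labelled ATP aptamer, Cy3-labelled switching-strand clusters on a modified Illumina MiSeq flow-cell were imaged in selection buffer. A second image followed after 15 min with 500 uM ATP at 22 °C, and five such buffer/ATP cycles were done, each separated by NaOH stripping and re-annealing. The fluorescence ratio, averaged per switch-domain sequence, is summed target-cycle over summed buffer-cycle Cy3 intensity per cluster, with clusters outside 100-1000 RFU excluded.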
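Also: ATP exposure 15 min at 22 °C before imaging.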

Row | Sequence | switch fluorescence ratio
1 | TTGACTTCCT | 1.57
2 | TTGAGAGT | 1.03
3 | TTGAGCATGA | 1.04
4 | TTGAGGACA | 1.01
5 | TTGAGGGAAG | 1.01
6 | TTGAGGTT | 0.95
7 | TTGAGTAACC | 1.06
8 | TTGAGTGCAA | 0.966
9 | TTGAGTGCCT | 1.07
10 | TTGAGTGCTA | 0.974
11 | TTGAGTGGCC | 1.01
12 | TTGATAGTTT | 1.05
13 | TTGATATGAA | 0.959
14 | TTGATCAAGA | 1.02
15 | TTGATCAAGT | 0.985
16 | TTGATCAATT | 1.01
17 | TTGATCCGAA | 1.05
18 | TTGATCCGC | 1.63
19 | TTGATGATA | 0.938
20 | TTGATGATCG | 1.13
21 | TTGATGCTTT | 0.995
22 | TTGATGGAGG | 0.977
23 | TTGATGGATT | 1.04
24 | TTGATGGCTT | 0.993
25 | TTGATGTG | 0.97
26 | TTGATGTGAG | 1

Row | Sequence | switch fluorescence ratio
27 | TTGATTACCT | 1.08
28 | TTGATTACGA | 1.02
29 | TTGATTCTGT | 1.02
30 | TTGCAAGATT | 1.09
31 | TTGCAAGCAA | 2.51
32 | TTGCAAGGTC | 1.07
33 | TTGCACGGAG | 1.01
34 | TTGCATACGA | 3.16
35 | TTGCATGGCA | 1.01
36 | TTGCATGTGC | 1.25
37 | TTGCCACCGT | 0.974
38 | TTGCCATCGA | 0.988
39 | TTGCCATTCT | 1.02
40 | TTGCCATTTG | 0.989
41 | TTGCCGAAGG | 0.986
42 | TTGCCGCAAA | 1.82
43 | TTGCCGCAAC | 4.58
44 | TTGCCTAGGT | 1.04
45 | TTGCCTGC | 1.05
46 | TTGCGACTCA | 0.966
47 | TTGCGAGATG | 0.987
48 | TTGCGGTTAA | 1.57
49 | TTGCGTAAGT | 1.02
50 | TTGCGTCGCT | 1.02
51 | TTGCGTCTAC | 1
52 | TTGCGTTAGA | 1.02

Row | Sequence | switch fluorescence ratio
53 | TTGCGTTGAG | 1
54 | TTGCTAAGTG | 0.998
55 | TTGCTACCAT | 0.976
56 | TTGCTACGCA | 1.01
57 | TTGCTACTTC | 0.991
58 | TTGCTCCCTA | 1.23
59 | TTGCTCGCAG | 1.09
60 | TTGCTCTAGG | 1.03
61 | TTGCTGAGTA | 0.973
62 | TTGCTGATGA | 0.985
63 | TTGCTGCATT | 0.99
64 | TTGCTGTAGT | 0.97
65 | TTGCTGTTG | 1.02
66 | TTGCTTTATA | 0.981
67 | TTGCTTTCCT | 1.04
68 | TTGGA | 0.984
69 | TTGGAATAGG | 0.991
70 | TTGGAATTGG | 0.972
71 | TTGGACACGA | 0.985
72 | TTGGACGGTG | 0.987
73 | TTGGAGAACA | 1.06
74 | TTGGAGCCTC | 1.06
75 | TTGGAGCGTT | 1.09
76 | TTGGAGTATT | 1.24
77 | TTGGATCATA | 0.982
78 | TTGGATTCCT | 1.04

Row | Sequence | switch fluorescence ratio
79 | TTGGCACTAT | 1.11
80 | TTGGCACTCG | 1.02
81 | TTGGCAGCTG | 0.999
82 | TTGGCCAGGC | 0.992
83 | TTGGCCGCGG | 1.03
84 | TTGGCGCAAG | 1.07
85 | TTGGCGGAG | 1.08
86 | TTGGCGGTGT | 1.04
87 | TTGGCTAGCG | 0.968
88 | TTGGCTATAA | 1.03
89 | TTGGCTGCAT | 1.01
90 | TTGGCTTCTA | 1.04
91 | TTGGGAACC | 0.98
92 | TTGGGAGTAT | 0.977
93 | TTGGGATCTT | 1.02
94 | TTGGGCATGT | 1
95 | TTGGGCCTAT | 1.02
96 | TTGGGCCTT | 1.18
97 | TTGGGCGCGT | 0.952
98 | TTGGGCGGCT | 1.07
99 | TTGGGCTCG | 1.08
100 | TTGGGGAACT | 1.05
101 | TTGGGGACAG | 0.943
102 | TTGGGTCGCG | 1.01
103 | TTGGGTTAGA | 0.962
104 | TTGGTAACGG | 1.04

Row | Sequence | switch fluorescence ratio
105 | TTGGTAATTT | 0.969
106 | TTGGTACCCT | 1.02
107 | TTGGTACGTT | 0.977
108 | TTGGTCGTCG | 0.953
109 | TTGGTGCGAA | 0.968
110 | TTGGTTGCGT | 1.03
111 | TTGGTTGTGA | 0.956
112 | TTGGTTTATT | 0.994
113 | TTGTAATATA | 1.04
114 | TTGTACACTG | 1.01
115 | TTGTAGCAAG | 1.6
116 | TTGTAGGCT | 1.06
117 | TTGTAGTAGG | 1.03
118 | TTGTAGTTT | 1.01
119 | TTGTATCGGG | 0.979
120 | TTGTATCTGG | 1
121 | TTGTATTGG | 0.966
122 | TTGTCAGTA | 1
123 | TTGTCCGGGC | 1
124 | TTGTCCTGTA | 0.968
125 | TTGTCGTACC | 1.08
126 | TTGTGCCTA | 0.982
127 | TTGTGCGGGG | 0.981
128 | TTGTGCTGCT | 1.01
129 | TTGTGCTTAT | 0.975
130 | TTGTGGATTT | 0.999

Row | Sequence | switch fluorescence ratio
131 | TTGTGGCCAG | 1
132 | TTGTGGCGGG | 0.974
133 | TTGTGGGCCT | 1.03
134 | TTGTTACTTA | 1
135 | TTGTTGAAC | 0.933
136 | TTGTTGACAG | 0.939
137 | TTGTTGGCGT | 0.996
138 | TTGTTGTC | 1.05
139 | TTGTTTC | 0.977
140 | TTTAAAAACT | 0.974
141 | TTTAAACCTA | 1.03
142 | TTTAAAGGGC | 0.967
143 | TTTAAAGTAA | 1.04
144 | TTTAAATAAT | 0.979
145 | TTTAACACTT | 0.987
146 | TTTAACATGT | 1.06
147 | TTTAACCTAG | 0.981
148 | TTTAACTATT | 0.975
149 | TTTAACTTAA | 0.997
150 | TTTAACTTTT | 0.994
151 | TTTAAGTTCC | 1.05
152 | TTTACAACGG | 1
153 | TTTACACG | 1.02
154 | TTTACATTTA | 1.01
155 | TTTACGAGGC | 1.09
156 | TTTACGTCCT | 1.68

Row | Sequence | switch fluorescence ratio
157 | TTTAGAAGCT | 0.98
158 | TTTAGAATAA | 1.01
159 | TTTAGACT | 0.952
160 | TTTAGACTAA | 0.978
161 | TTTAGCCGG | 1
162 | TTTAGCGCTC | 1.05
163 | TTTAGCGGCT | 1.03
164 | TTTAGGACAA | 0.946
165 | TTTAGGAGCA | 1.03
166 | TTTAGGATAT | 1.04
167 | TTTAGGCACC | 1.04
168 | TTTAGGGTCC | 0.953
169 | TTTAGGTCT | 0.986
170 | TTTAGTAATC | 1.04
171 | TTTAGTATAC | 1.05
172 | TTTAGTCCTG | 0.987
173 | TTTAGTGGAT | 1.02
174 | TTTATACAGA | 0.997
175 | TTTATACGCA | 1.2
176 | TTTATATACA | 1.06
177 | TTTATATTTA | 0.975
178 | TTTATGGATG | 0.96
179 | TTTATGGCCG | 0.972
180 | TTTATGTGGT | 1.01
181 | TTTATTCGCA | 1.1
182 | TTTCAATAAA | 1.27

Row | Sequence | switch fluorescence ratio
183 | TTTCAATCGC | 1.04
184 | TTTCACCTAC | 1.33
185 | TTTCACGGCG | 0.986
186 | TTTCACGGT | 1.04
187 | TTTCAGACT | 0.985
188 | TTTCAGATGT | 0.975
189 | TTTCAGGGG | 1.14
190 | TTTCAGGTGA | 0.98
191 | TTTCATAGGG | 0.969
192 | TTTCATGTAC | 1.21
193 | TTTCATTCAG | 1.01
194 | TTTCCACAGT | 2.12
195 | TTTCCCGTA | 1.06
196 | TTTCCGAGTG | 0.982
197 | TTTCCGGGCA | 1.49
198 | TTTCCGTAAG | 1.06
199 | TTTCCGTTTA | 0.93
200 | TTTCCTCAGC | 1.86
201 | TTTCGAAGGC | 0.986

— the supplement of paper PMC10126150
